Results as given in PubChem BioAssay (NCI).
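Values below derive from 48-hour exposures of cells grown in 96-well plates, with endpoints linearly interpolated between the two concentrations bracketing the appropriate inhibition level. TGI denotes the concentration required for complete inhibition of growth.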

Experiments:
Assay in all cases: NCI tumour cell line growth inhibition, 48 h
HCT-15 colon = system: HCT-15 colon
U251 CNS = system: U251 CNS
SK-MEL-2 melanoma = system: SK-MEL-2 melanoma
SN12C renal = system: SN12C renal
M14 melanoma = system: M14 melanoma
SNB-75 CNS = system: SNB-75 CNS
NCI-H460 lung = system: NCI-H460 lung
NCI-H23 lung = system: NCI-H23 lung
SF-268 CNS = system: SF-268 CNS
KM12 colon = system: KM12 colon
HS 578T breast = system: HS 578T breast
COLO 205 colon = system: COLO 205 colon
NCI-H226 lung = system: NCI-H226 lung
MCF7 breast = system: MCF7 breast
RPMI-8226 leukemia = system: RPMI-8226 leukemia
SK-OV-3 ovarian = system: SK-OV-3 ovarian
MDA-N = system: MDA-N
A549 NSCLC = system: A549 NSCLC
LOX IMVI melanoma = system: LOX IMVI melanoma
HL-60(TB) leukemia = system: HL-60(TB) leukemia
SW-620 colon = system: SW-620 colon
HCT-116 colon = system: HCT-116 colon
RXF 393 renal = system: RXF 393 renal
EKVX NSCLC = system: EKVX NSCLC
NCI-H522 lung = system: NCI-H522 lung
A498 renal = system: A498 renal
SK-MEL-5 melanoma = system: SK-MEL-5 melanoma
UACC-62 melanoma = system: UACC-62 melanoma
PC-3 prostate = system: PC-3 prostate
SNB-19 CNS = system: SNB-19 CNS
K-562 leukemia = system: K-562 leukemia
MDA-MB-231 breast = system: MDA-MB-231 breast
TK-10 renal = system: TK-10 renal
UACC-257 melanoma = system: UACC-257 melanoma
MOLT-4 leukemia = system: MOLT-4 leukemia
HT29 colon = system: HT29 colon
SF-539 CNS = system: SF-539 CNS
ACHN renal = system: ACHN renal
DU-145 prostate = system: DU-145 prostate
MDA-MB-435 = system: MDA-MB-435
CCRF-CEM leukemia = system: CCRF-CEM leukemia
OVCAR-4 ovarian = system: OVCAR-4 ovarian
OVCAR-3 ovarian = system: OVCAR-3 ovarian
SF-295 CNS = system: SF-295 CNS
HOP-62 NSCLC = system: HOP-62 NSCLC
HOP-92 NSCLC = system: HOP-92 NSCLC
BT-549 breast = system: BT-549 breast
HCC-2998 colon = system: HCC-2998 colon
MALME-3M melanoma = system: MALME-3M melanoma
OVCAR-8 ovarian = system: OVCAR-8 ovarian
IGROV1 ovarian = system: IGROV1 ovarian
CAKI-1 renal = system: CAKI-1 renal
OVCAR-5 ovarian = system: OVCAR-5 ovarian
SK-MEL-28 melanoma = system: SK-MEL-28 melanoma

Measured: TGI

O=C(/C=C/c1ccccc1)Nc1ccccc1Cl
> 100 µM: all assays above
